# Experimental data as given in article PMC6919601, “Identification of Plasmodium dipeptidyl aminopeptidase allosteric inhibitors by high throughput screening” (PLoS ONE, 2019).
# Values joined by “and” are separate entries in the source; they are usually repeats but may differ in a detail not shown here. Identical values can stand only once. About 230 (0.21%) of roughly 110,000 compounds showed an effect of 50% or more. The list shows a part of the results.
# Target: DPAP1 (Plasmodium falciparum, UniProt Q8IIJ9)
# Sequence (Q8IIJ9 whole entry, looked up): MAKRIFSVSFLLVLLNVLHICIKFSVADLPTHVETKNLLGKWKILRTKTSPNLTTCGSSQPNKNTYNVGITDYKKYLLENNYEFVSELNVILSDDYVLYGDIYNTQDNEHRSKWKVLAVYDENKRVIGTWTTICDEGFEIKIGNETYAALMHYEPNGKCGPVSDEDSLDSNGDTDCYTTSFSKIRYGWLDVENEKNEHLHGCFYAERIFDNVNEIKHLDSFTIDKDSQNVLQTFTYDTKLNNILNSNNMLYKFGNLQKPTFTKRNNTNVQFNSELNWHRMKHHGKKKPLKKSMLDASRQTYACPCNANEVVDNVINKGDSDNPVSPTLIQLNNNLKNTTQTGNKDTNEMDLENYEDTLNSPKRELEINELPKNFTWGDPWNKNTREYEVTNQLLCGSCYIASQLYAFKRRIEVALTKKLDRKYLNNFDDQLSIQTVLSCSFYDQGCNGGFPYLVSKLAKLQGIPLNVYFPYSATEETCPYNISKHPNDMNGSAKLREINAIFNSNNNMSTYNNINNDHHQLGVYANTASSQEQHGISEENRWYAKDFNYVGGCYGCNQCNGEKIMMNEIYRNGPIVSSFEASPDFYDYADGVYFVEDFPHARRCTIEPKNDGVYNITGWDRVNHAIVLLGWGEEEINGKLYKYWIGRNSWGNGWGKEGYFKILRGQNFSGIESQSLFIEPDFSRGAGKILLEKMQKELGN
# Experiment: primary screen, percent inhibition; read by cleavage of a fluorogenic dipeptide substrate; higher = more effect of the substance
# Parameters: species or system P. falciparum D10 trophozoite lysates; single well
# 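Also: 30 min substrate incubation versus DMSO and 10 µM JCP410 controls.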
row,SMILES,% Inhibition @ 10 uM
1,O=C(CN(c1cccc(Cl)c1Cl)S(=O)(=O)c1ccccc1)NCc1ccncc1,-4.86%
2,CCOc1ccc(C(=O)Nc2ccccc2Cl)cc1Cl,2.95%
3,COc1ccccc1CNC(=O)c1cccc2c1C(=O)N(Cc1cccnc1)C2,-2.29%
4,CN(Cc1ccccc1Br)CC(O)c1ccccc1 (stereo not drawn),1.9%
5,COc1cccc(C(=O)N[C@@H](CS(=O)(=O)Cc2ccccc2)C(=O)NCC#N)c1,0.079%
6,COc1cc(OC)cc(C(=O)Nc2ccc(C)c(O)c2)c1,2.48%
7,O=C(NC12CC3CC(CC(C3)C1)C2)OC1CN2CCC1CC2 (stereo not drawn),-2.36%
8,c1cnc(Nc2nc(-c3ccncc3)cs2)nc1,-8.19%
9,CCc1nc(C)cc(CSc2nc3ccccc3[nH]2)c1O,1.29%
10,CCNS(=O)(=O)c1ccc(-c2cc(C(F)(F)F)no2)s1,-2.68%
11,CC(C)CC(C(=O)NCC#N)c1cccc(-c2csc(N3CCN(C(=O)OC(C)(C)C)CC3)n2)c1 (stereo not drawn),0.173%
12,CC(SC(=S)N1CCOCC1)C(=O)O (stereo not drawn),-7.88%
13,Cc1nc2ccc(S(=O)(=O)NCC(=O)N(C)Cc3ccccc3)cc2s1,2.57%
14,Cc1cc(N2CCOCC2)nc(N2CCC(C(=O)O)CC2)n1,3.66%
15,COc1ccc(F)cc1S(=O)(=O)n1nc(C)c(Cl)c1C,-0.0678%
16,Nc1cccc2c(S(=O)(=O)O)cccc12,-1.69%
17,Cn1nc(C(=O)N2CC=C(c3ccccc3)CC2)c2c1-c1ccccc1SC2,12%
18,COC(=O)C1=CN(Cc2ccc(OC)cc2)C=C(C(=O)OC)C1c1ccc(OC)c(O)c1,4.99%
19,COc1ccc(C(=O)Nc2nc(-c3nnn(-c4ccc(F)cc4C)c3C)ns2)cc1,1.8%
20,C1CCCC(NCCN2CCCCC2)CC1,2.85%
21,Cc1noc(/C=C/c2ccco2)c1S(=O)(=O)N1CCC(C(=O)NC(C)c2ccccc2)CC1 (stereo not drawn),3.57%
22,CCOC(=O)C1CCCN(CCC(C)c2ccccc2)C1 (stereo not drawn),-7.34%
23,Cc1ccc(S(=O)(=O)NCC(=O)NC2CCCCCC2)cc1,2.84%
24,CCOC(=O)C1=C(CC)OC(N)=C(C#N)C1c1ccc(Cl)cc1 (stereo not drawn),4.6%
25,Cc1ccccc1CNC(=O)c1ccccc1C(=O)O,-2.09%
26,CC(=O)OC(C)CC#CCN1CCCCC1 (stereo not drawn),-3.26%

row,SMILES,% Inhibition @ 10 uM
1,CCCN1CCC(N2CCOCC2)CC1,2.98%
2,O=C(CCN1C(=O)c2ccccc2Sc2ncccc21)NCc1cccc(Cl)c1,-7.87%
3,CCC(=O)N1c2ccccc2N=C2CC(C)(C)CC(O)=C2C1c1ccc(OC)cc1OC (stereo not drawn),1.01%
4,CC1(C)OC(=O)C(=Cc2cc(Br)c(O)c(Br)c2)C(=O)O1,-4.93%
5,CCOc1ccc(S(=O)(=O)N(C(=O)c2ccccc2)c2ccc3oc(C)c(C(C)=O)c3c2)cc1,-14.4%
6,Cc1ccc2nc(O)c3cc(C(=O)N4CCN(C(=O)c5ccco5)CC4)sc3c2c1,3.32%
7,O=C1N=C(N2CCOCC2)S/C1=C/c1ccc(-c2ccc(F)cc2)o1,-1.04%
8,N=c1c2c(n(Cc3ccc(F)cc3)c3c1CCC3)CCC2,4.01%
9,CC(Oc1cccc(Cl)c1)C(=O)Nc1ccccc1F (stereo not drawn),2.82%
10,Cc1ccc(C)n1-c1nnc(N2CCC(C(=O)NCc3ccco3)CC2)s1,-0.522%
11,O=C1ON=C(c2ccccc2)/C1=C\c1ccc(Cl)cc1Cl,0.685%
12,Cc1cccc(OCC(=O)Nc2c(C)cccc2C)c1,-4.04%
13,CC(C)CCNC(=O)c1cc(S(=O)(=O)N2CCC3(CC2)OCCO3)ccc1F,-5.64%
14,COc1ccc(-n2ncc3c2ncn2nc(COc4cc(C(C)C)ccc4C)nc32)cc1,0.569%
15,CCCS(=O)(=O)Nc1c(NCC)c2ccccc2oc1=O,-1.68%
16,COC(=O)C1=CN(C(C)C)C=C(C(=O)OC)C1c1ccccc1OCc1ccccc1,-3.23%
17,O=C(c1ccc(Br)cc1)N1CCN(c2cccc(Cl)c2)CC1,-10.8%
18,COc1cccc(CN2CCN(Cc3ccc(C)cc3)CC2)c1,-0.622%
19,CCNC(=O)C1CC(=O)N(c2ccc(C)cc2)C1 (stereo not drawn),1.81%
20,COc1ccc(Br)cc1CN1C(=O)c2ccccc2C1C(=O)NCCc1ccccc1 (stereo not drawn),4.63%
21,COc1cc(-c2nc3s/c(=C\c4ccccc4)c(=O)n3n2)cc(OC)c1OC,-4.85%
22,COc1cc(NC(=O)C2CC3CCC2C3)c(OC)cc1Cl (stereo not drawn),-3.04%
23,CC1CCN(CCNC(=O)CN(C)S(=O)(=O)c2cccc3nsnc23)CC1,-1.43%
24,COc1ccc(/C(O)=C/C2=NCC(C)NC2=O)cc1OC (stereo not drawn),2.04%
25,CCCN1CCC(N2CC3(C)CC2CC(C)(C)C3)CC1 (stereo not drawn),0.217%
26,CCOC(=O)c1cnc2cc(F)c(F)cc2c1NC1CC1,-2.79%

row,SMILES,% Inhibition @ 10 uM
1,CCCNc1nc(Cl)nc(NCC(=O)OCC)n1,-1.56%
2,O=C1NC(=S)S/C1=C\c1ccccn1,2.65%
3,Nc1n[nH]c(SCC(=O)c2ccc(O)cc2O)n1,1.63%
4,Cc1ccc(S(=O)Cc2ccc(C(=O)NC3CCCC(C)C3C)o2)cc1 (stereo not drawn),-4.96%
5,Cc1ccc(C(=O)Nc2nc3ccccc3s2)cc1,-5.63% and -7.32%
6,CC1(C(=O)O)CCCC2(C)c3cc(O)ccc3CCC12 (stereo not drawn),-5.15%
7,COC(=O)C(C(=O)OC)C(c1ccccc1)N1CCOCC1 (stereo not drawn),-5.5%
8,COc1ccc(Cl)cc1C(=O)Nc1sc2c(c1C(N)=O)CCCCC2,0.431%
9,O=C(NC(c1ccccc1)c1ccccc1)C1CCCN(c2cnccn2)C1 (stereo not drawn),0.635%
10,CC(c1ccccc1)n1c(CCNC(=O)c2ccco2)nc2ccccc21 (stereo not drawn),-4.95%
11,Cc1cccc(C)c1N1C(=O)C2C(C1=O)C1C=CC2C12CC2 (stereo not drawn),2.01%
12,O=C1CN(C(=O)c2ccco2)CC(=O)N1,-0.436%
13,CCc1ccc(CNC(=O)Cn2ccc3cc(S(=O)(=O)N4CCC(C)CC4)ccc32)cc1,-2.74%
14,C#CCSc1nc2c(c(=O)n1-c1ccc(OC)cc1)C1(CCCC1)Cc1ccccc1-2,1.8%
15,O=C(Nc1sc2c(c1C(=O)NCCc1ccc(O)cc1)CCCC2)c1ccccc1,-4.02%
16,CN1CCN(C(=O)c2cc3nc4c(c(C(F)(F)F)n3n2)CCc2ccccc2-4)CC1,-2.8%
17,C/C(=N\CC1CCNCC1)C1=C(O)CC(C)(C)CC1=O,10.3%
18,CC(=O)c1ccc(N2CCCCC2)c(F)c1,-0.128%
19,O=C(CN1Cc2ccccc2C1=O)NCc1cccs1,-7.33%
20,O=C(/C(=C/c1cccnc1)n1ccnc1)c1ccc(Cl)cc1Cl,-1.71%
21,Cc1ccc(NC(=O)c2sc3ccccc3c2Cl)nc1,-2.56%
22,Cc1nn(CC(=O)NCc2ccc(OC(C)C)cc2)c(=O)c2nn(-c3ccccc3)c(C)c12,2.14%
23,COc1ccc(CNC2CC(C)N(C)CC2C)cc1OC (stereo not drawn),-2.74%
24,COc1ccc(N2CCN(C(=O)CN(c3cccc(C)c3C)S(C)(=O)=O)CC2)cc1,-8.43%
25,Cc1ccsc1/C=c1\sc2nc(-c3ccc(F)cc3)nn2c1=O,-2.98%
26,C=C(C)CN(CC)Cc1ccc([N+](=O)[O-])cc1,-6%

row,SMILES,% Inhibition @ 10 uM
1,CCOC(=O)N1CCC(NC(=O)CSc2c3c(nc4ccc(Cl)cc24)CCCC3)CC1,-8.9%
2,Cc1ccc(Cc2cnc(NC(=O)/C=C/c3ccco3)s2)cc1,10.9%
3,O[C@]12CCCC[C@@H]1[C@@H](c1cccc(Cl)c1Cl)NCC2,-1.8%
4,Oc1nc(SCc2ccccc2F)nc2c1cnn2-c1ccccc1,-3.35%
5,CN(C1CCCCC1)S(=O)(=O)N1CCCC(C(=O)NCc2ccc3c(c2)OCO3)C1 (stereo not drawn),-2.86%
6,CCOc1ccccc1N(CC(=O)Nc1cccnc1)S(=O)(=O)c1ccc(Cl)cc1,-2.32%
7,COc1ccc(-c2cc(C)no2)cc1S(=O)(=O)N1CCC2(CC1)OCCO2,-2.25%
8,Cc1nc(CSc2ncnc3sc4c(c23)CCC4)cs1,0.0451%
9,COc1ccc(NC(=O)c2ccc(S(=O)(=O)N3CCCCC3C)cc2)cc1 (stereo not drawn),21.9%
10,Cc1ccc(CCNC(=O)C2CCC(CNS(=O)(=O)c3ccc(C)cc3)CC2)cc1 (stereo not drawn),3.74%
11,Cc1ccc2nc(Cl)cc(SCC(=O)NCc3ccco3)c2c1,2.73%
12,CC(C)CCNCC(O)Cn1nnnc1-c1ccccc1 (stereo not drawn),3%
13,FC(F)(F)c1ccccc1CN1CCN(c2ccccc2Cl)CC1,3.01%
14,CC(=O)Oc1ccc2oc(C)c([N+](=O)[O-])c2c1,-4.58%
15,Cc1ccc(CNC(=O)C2CCC(CNc3nc(S)nc4ccccc34)CC2)o1 (stereo not drawn),0.907%
16,CCSc1c(Cl)cnn(-c2ccccc2)c1=O,6.49%
17,O=[N+]([O-])c1ccc(CN2CCC(O)CC2)s1,-4.5%
18,O=C(CNC(=O)c1cccc(Cl)c1)Nc1ccc(Br)cc1C(=O)c1ccccc1,0.214%
19,C=Cc1ccc(Cn2c(C)c(CNCc3ccc(OCC)c(OC)c3)c(C(=O)O)c2C)cc1,-1.92%
20,O=C(Nc1ccc(Cc2ccncc2)cc1)c1ccccc1Br,-1.75%
21,CCN(CC)C1=N/C(=C\c2ccccc2)C(=O)N1c1cccc(Cl)c1,-0.425%
22,O=C(NCCc1ccccc1F)c1ccc2ccccc2c1,-6.91%
23,CCS(=O)(=O)c1nc(S(=O)(=O)c2ccc(Cl)cc2)c(NCCCOC(C)C)s1,-4.04%
24,CC12CC3CC(C)(C1)CC(OCCNC(=O)Cn1ncc4c(=O)oc5ccccc5c41)(C3)C2,10.2%
